Measurements published in PubChem BioAssay AID1476 (National Center for Advancing Translational Sciences (NCATS), 2009).
In all, about 200,000 compounds went through this assay and about 4,500 (2.2%) were called active. Inconclusive means that the source gave no clear call. Such entries were picked first, then a sample of the others. Calls follow the shape of the dose curve; as a rule, active = well fitted inhibition curve with a large enough effect; inconclusive = small, poorly fitted or top-dose-only effect, or effect the other way; inactive = flat fitted curve, though single readings scatter. Potencies of inconclusive entries are doubtful fits and often do not repeat.

target: Cruzipain (Trypanosoma cruzi) (UniProt P25779); assay: qHTS Assay for Promiscuous and Specific Inhibitors of Cruzain (without detergent); conditions: purified cruzain, Z-FR-AMC fluorescence, no detergent; also: nearly all actives have a fitted effect of over 40% in size;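 as to max response, negative = inhibition: plate controls were enzyme without inhibitor for no effect and buffer without enzyme for full effect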
How it was run: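 Purified cruzain at 1.5 nM, pre-incubated 15 min with compound at room temperature in 100 mM sodium acetate pH 5.5, 5 mM DTT, 0.00005% Triton X-100. Reaction started with 2 uM Z-FR-AMC; AMC fluorescence increase over 60 s gives rate.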
Potency is read from the fitted curve at half-maximal effect; tags tell the direction and shape of the fitted curve.

UniProt P25779, sequence (P25779 whole entry, looked up): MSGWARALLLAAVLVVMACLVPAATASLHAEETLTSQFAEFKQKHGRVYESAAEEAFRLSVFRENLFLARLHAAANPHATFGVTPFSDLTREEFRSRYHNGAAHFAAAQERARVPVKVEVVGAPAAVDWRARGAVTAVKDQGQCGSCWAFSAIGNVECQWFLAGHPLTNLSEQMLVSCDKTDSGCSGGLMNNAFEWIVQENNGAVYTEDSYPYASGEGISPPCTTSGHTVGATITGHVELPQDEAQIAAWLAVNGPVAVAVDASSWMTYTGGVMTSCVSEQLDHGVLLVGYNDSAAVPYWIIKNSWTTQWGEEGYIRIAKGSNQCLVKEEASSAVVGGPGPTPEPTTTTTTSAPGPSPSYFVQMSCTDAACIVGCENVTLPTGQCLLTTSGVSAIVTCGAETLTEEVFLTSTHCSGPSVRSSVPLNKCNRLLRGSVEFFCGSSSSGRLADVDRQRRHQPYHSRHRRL

Row | Structure (SMILES) | max response, negative = inhibition | Potency
1 | COc1ccc(-c2nc3ccccc3n3c(-c4cccc(C)c4)c4c(=O)n(C)c(=O)n(C)c4c23)cc1 | inactive: 4.2% | –
2 | COc1ccc(-c2cc(=O)c3ccccc3o2)cc1OC | inactive: -6.88% | –
3 | COc1ccc(/C=C(/NC(=O)c2ccccc2)c2nc3ccccc3[nH]2)cc1OC | – | inconclusive: 39.8 µM [activator, single point]
4 | Cc1ccc2nc3c(cc2c1)c(NC(=O)C1CCCO1)nn3CC(C)C (stereo not given) | – | inconclusive: 25.1 µM [activator, single point]
5 | Cc1nc2c(-c3ccc(F)cc3)c(C)nn2c(C)c1CCC(=O)N1CCC2(CC1)OCCO2 | – | inconclusive: 25.1 µM [activator, partial curve]
6 | O=[N+]([O-])c1ccc2nc(-[n+]3c(-c4ccccc4)cc(-c4ccccc4)cc3-c3ccccc3)[nH]c2c1 | – | inconclusive: 39.8 µM [inhibitor, single point]
7 | COCCCn1c(=N)c(C(=O)NCC2CCCO2)cc2c(=O)n3cc(C)ccc3nc21 (stereo not given) | – | inconclusive: 31.6 µM [inhibitor, single point]
8 | CCOC(=O)C1=C(C)NC(C)=C(C(=O)OCC)C1C(=O)OCC(=O)N1CCCCC1CC (stereo not given) | – | inconclusive: 31.6 µM [activator, single point]
9 | Cc1csc(NC(=O)c2c(-c3c(Cl)cccc3Cl)noc2C)n1 | – | inconclusive: 39.8 µM [inhibitor, single point]
10 | Cc1ccsc1/C=C/C1=Cc2c(sc(NC(=O)CSc3n[nH]c(N)n3)c2C#N)C(C)(C)C1 | – | inconclusive: 12.6 µM [inhibitor, partial curve]
11 | Cc1nc2sc(C#N)c(N)c2c2c1CCCC2 | – | inconclusive: 39.8 µM [inhibitor, single point]
12 | COc1ccc(NS(=O)(=O)c2cccc(-c3nnc4n3CCCCC4)c2)cc1 | inactive: 9.72% | –
13 | CCN1CCN(C(c2ccc(OC)cc2)c2c(O)cc(C)n(Cc3ccco3)c2=O)CC1 (stereo not given) | – | inconclusive: 31.6 µM [inhibitor, single point]
14 | COc1ccc(CNC(=O)c2ccc(NC(=O)N3CC4CCCN4c4ccccc43)cc2)cc1 (stereo not given) | – | inconclusive: 25.1 µM [inhibitor, single point]
15 | O=C(NCCC1=CCCCC1)c1ccc2c(c1)N(Cc1ccccc1F)C(=O)c1ccccc1S2=O (stereo not given) | inactive: -1.63% | –
16 | CCc1cccc(-n2c(=O)c3cccnc3n2CC(=O)NCc2ccccc2)c1 | inactive: 11.1% | –
17 | COC(=O)c1c(NC(=O)Cc2cccs2)sc(C(=O)N2CCCCC2)c1C | inactive: -7.53% | –
18 | Cc1c(C(=O)NCc2ccccc2)oc2ccc(S(=O)(=O)N3CCC4(CC3)OCCO4)cc12 | – | inconclusive: 39.8 µM [activator, single point]
19 | COc1ccc(C)cc1S(=O)(=O)N(CC(=O)Nc1cccc([N+](=O)[O-])c1)c1cc(C)cc(C)c1 | – | inconclusive: 39.8 µM [inhibitor, single point]
20 | CCOC(=O)c1cc(C)n(CC2CCC(C(=O)Nc3ccc(C(C)=O)cc3)CC2)c1C (stereo not given) | – | inconclusive: 39.8 µM [activator, single point]
21 | O=C(Oc1ccc(NC2=C(Cl)C(=O)c3ccccc3C2=O)cc1)c1ccc([N+](=O)[O-])cc1 | – | active: 12.6 µM
22 | COc1ccc(-c2nn(-c3ccccc3)cc2CNC(=O)c2cccc([N+](=O)[O-])c2)cc1 | – | inconclusive: 39.8 µM [inhibitor, single point]

Row | Structure (SMILES) | max response, negative = inhibition | Potency
23 | C/C(CC(=O)Nc1ccc(Cl)cc1Cl)=N\NC(N)=S | – | active: 7.94 µM
24 | COc1ccc([N+](=O)[O-])cc1C1NN=C(c2ccccc2O)S1 (stereo not given) | – | active: 20 µM
25 | COc1ccc(C(=O)CSc2nc3ccccc3n2CC(=O)c2ccccc2)cc1 | – | inconclusive: 39.8 µM [inhibitor, single point]
26 | O=C(Cn1cncc1-c1ccc([N+](=O)[O-])cc1)Nc1ccccc1F | – | inconclusive: 31.6 µM [inhibitor, single point]
27 | Cc1nc(-c2ccc(S(=O)(=O)Nc3ccc(C#N)cc3)cc2)co1 | inactive: -1.22% | –
28 | COC(=O)c1ccc(NC(=O)CSc2nc(C)cc(C)c2C(=O)Nc2ccccc2)cc1 | inactive: -2.24% | –
29 | O=c1oc2ccc(Cl)cc2cc1-c1nnc(Nc2cccc(C(F)(F)F)c2)s1 | – | active: 5.01 µM
30 | O=C(CNC(=O)c1ccccc1F)OCc1cc(=O)n2nc(C3CCCCC3)sc2n1 | inactive: -6.29% | –
31 | CC(=O)Nc1cccc(NC(=O)CSc2nnc(Cc3cccn3C)n2CCc2ccccc2)c1 | – | inconclusive: 31.6 µM [activator, single point]
32 | Fc1cccc(Cl)c1CNCCSc1nnnn1-c1ccccc1 | – | active: 12.6 µM
33 | COc1ccc(C2=NN(C(=O)c3ccc(Cl)c([N+](=O)[O-])c3)C(c3ccccc3)C2)cc1 (stereo not given) | – | inconclusive: 39.8 µM [inhibitor, single point]
34 | O=C(OCC(=O)N1CCCCC1)c1cc(NS(=O)(=O)c2ccc(Cl)c([N+](=O)[O-])c2)ccc1O | – | inconclusive: 39.8 µM [inhibitor, single point]
35 | Cc1ccsc1C1C=C(c2cccc(Br)c2)Nc2ncnn21 (stereo not given) | – | inconclusive: 39.8 µM [inhibitor, single point]
36 | O=S(=O)(c1ccc(-c2csc(=Nc3ccc(OC(F)(F)Cl)cc3)n2CCCO)cc1)N1CCCC1 | – | inconclusive: 10 µM [activator, partial curve]
37 | CCn1cc(C(=O)Nc2ccc(OC)c(OC)c2)c2cc(OC)c(OC)cc2c1=O | – | inconclusive: 39.8 µM [activator, single point]
38 | O=C(Nc1ccc(F)cc1F)c1cc2ncc(Br)cn2n1 | – | inconclusive: 39.8 µM [inhibitor, single point]
39 | O=C1NC(=Nc2ccc(Cl)cc2)SC1Cc1cccc(Cl)c1Cl (stereo not given) | – | inconclusive: 39.8 µM [inhibitor, single point]
40 | O=C(CSc1nc2c(cnn2-c2ccc(F)cc2)c(=O)[nH]1)N1N=C(c2cccs2)CC1c1ccc(F)cc1 (stereo not given) | – | inconclusive: 39.8 µM [inhibitor, single point]
41 | COc1cc2c(cc1OC)[C@]13CC[N@+]4(C)CC5=CCO[C@H]6CC(=O)N2[C@@H]1C6[C@@H]5C[C@]34O (stereo not given in full) | inactive: -3.9% | –
42 | CCOC(=O)c1c(C)[nH]c(C(=O)COC(=O)CCC2CCCC2)c1C | – | active: 15.8 µM
43 | Cc1cc(=O)[nH]c2nnc(SCc3ccc(C(F)(F)F)cc3)n12 | inactive: -0.759% | –
44 | O=P1(O)Oc2c(-c3ccccc3)cc3ccccc3c2-c2c(c(-c3ccccc3)cc3ccccc23)O1 | – | inconclusive: 25.1 µM [activator, partial curve]

Row | Structure (SMILES) | max response, negative = inhibition | Potency
45 | COc1ccc(C(=O)Nc2ccc3oc(-c4ccc5ccccc5c4)nc3c2)cc1Br | – | inconclusive: 3.98 µM [inhibitor, single point]
46 | Cn1cccc1-c1cc2n(n1)CCC(=O)N2CCCC(=O)NCc1ccc(F)cc1 | inactive: -2.73% | –
47 | COc1ccc(NC(=O)/C(C#N)=C\c2cc(C)n(-c3ccc4c(c3)OCO4)c2C)cc1 | – | inconclusive: 39.8 µM [inhibitor, single point]
48 | COc1ccc(/C=C(\C#N)C(=O)OCC(=O)NCc2ccccc2)cc1 | – | active: 31.6 µM
49 | CCc1ccc(N(CC(=O)Nc2ccc(NC(C)=O)cc2)S(=O)(=O)c2ccccc2)cc1 | – | inconclusive: 31.6 µM [activator, single point]
50 | C=CC(=O)OCCCCCCOC(=O)C=C | inactive: 4.67% | –
51 | CCOc1ccccc1N1Cc2cc(C)c(C)cc2C1 | – | active: 25.1 µM
52 | Cc1conc1NC(c1cccs1)c1ccc2cccnc2c1O (stereo not given) | – | inconclusive: 39.8 µM [inhibitor, single point]
53 | Cc1nn(-c2ccccc2Cl)c(Cl)c1/C=N/Nc1nc2ccccc2s1 | – | active: 12.6 µM
54 | Cc1ccc2nc(-c3ccccn3)cc(C(=O)N3CCN(c4ncccn4)CC3)c2c1 | – | inconclusive: 25.1 µM [activator, single point]
55 | CCc1cc2c(cc3c(=O)n(CC(=O)NCc4cc(Br)ccc4OC)ncn32)s1 | inactive: 23.9% | –
56 | Cc1ccc(NC(=O)CN2C(=O)c3ccccc3Sc3ccc(C(=O)N4CCOCC4)cc32)c(Cl)c1 | – | inconclusive: 39.8 µM [activator, single point]
57 | O=C(O)c1c(NC(=O)c2cccc3ccccc23)sc2c1CCC2 | – | inconclusive: 20 µM [inhibitor, partial curve]
58 | CCc1nnc(NC(=O)c2ccc(Cl)c(S(=O)(=O)N3CCc4ccccc43)c2)s1 | – | active: 12.6 µM
59 | Cc1ccc(-c2nc3n(n2)Cc2ccccc2-3)cc1 | – | inconclusive: 39.8 µM [inhibitor, single point]
60 | CC(Sc1nnc(-c2ccccc2)c(-c2ccccc2)n1)C(=O)Nc1ncc(Cl)cc1Cl (stereo not given) | – | inconclusive: 39.8 µM [inhibitor, single point]
61 | O=c1[nH]c2ccc(Cl)cc2c(-c2ccccc2)c1N1CCOCC1 | – | inconclusive: 39.8 µM [activator, single point]
62 | Cc1ccc(C)c(S(=O)(=O)Nc2ccccc2C(=O)Nc2cc(C)on2)c1 | – | inconclusive: 39.8 µM [inhibitor, single point]
63 | Cc1cc(-c2csc(N)n2)c(C)n1-c1ccc(Cl)c(Cl)c1 | – | active: 12.6 µM
64 | Cc1cc(C)c(C)c(S(=O)(=O)ON2C(=O)c3ccccc3C2=O)c1C | – | active: 25.1 µM
65 | Cc1cc(Cl)ccc1Oc1cccc(C(=O)/C(C#N)=C/N(C)C)c1 | – | inconclusive: 39.8 µM [activator, single point]
